Values marked as one replicate rest on one cluster of the flow cell; about a third of the high ones do not repeat.
Each sequence was assayed on ATP (assay: switch fluorescence ratio, 500 uM ATP over buffer (Cy3 cluster intensity, sum of 5 cycles each) (fold (ratio)); higher = stronger signal-on switching upon ATP binding; sequences stand for … in TCGTCGGCAGCGTCAGATGTGTATAAGAGACAGTTTTTTTTTTTTTTTTTTTTTTTTT…TC). Settings: aptamer strand: ATP DNA aptamer (quencher-CACCTGGGGGAGTATTGCGGAGGAAGG + anchor), 100 nM annealed; ATP concentration: 500 uM; one replicate.
In short: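 Values give the fluorescence ratio for each switch-domain sequence, averaged from per-cluster ratios of summed target-cycle to summed buffer-cycle Cy3 intensity. The Cy3-labelled switching-strand clusters sat on a modified Illumina MiSeq flow-cell, were annealed to 100 nM quencher-labelled ATP aptamer, and were imaged in selection buffer, then after 15 min with 500 uM ATP at 22 °C. Five cycles ran with NaOH stripping and re-annealing between them, and clusters outside 100-1000 RFU were excluded.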
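Also: ATP exposure 15 min at 22 °C before imaging.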

| Sequence | switch fluorescence ratio |
| --- | --- |
| ATAGATGACT | 1.04 |
| ATAGATTTTG | 1.01 |
| ATAGCCATA | 1 |
| ATAGCCCGGT | 1.01 |
| ATAGCCGGAT | 1.11 |
| ATAGCCTCCC | 1.39 |
| ATAGCCTCCT | 1.03 |
| ATAGCCTGGG | 1.01 |
| ATAGCGGGAT | 1.07 |
| ATAGCGGTG | 0.952 |
| ATAGCGTAA | 1.01 |
| ATAGCTCAGT | 1.01 |
| ATAGCTGGGC | 1.01 |
| ATAGCTGTTT | 1.04 |
| ATAGCTTGAA | 0.939 |
| ATAGGAAGGT | 1.04 |
| ATAGGCGAGC | 1.02 |
| ATAGGCGGCC | 1.03 |
| ATAGGGACG | 1.09 |
| ATAGGTCGCG | 0.979 |
| ATAGGTGTCC | 1.02 |
| ATAGTCCCT | 1.04 |
| ATAGTCGATA | 0.976 |
| ATAGTGAGAT | 1.01 |
| ATAGTGTCCG | 1.1 |

| Sequence | switch fluorescence ratio |
| --- | --- |
| ATAGTTACTG | 1.07 |
| ATAGTTGATA | 1 |
| ATAGTTGTTA | 1.04 |
| ATATAAACGT | 1.06 |
| ATATAAGCTC | 1.01 |
| ATATAATTCC | 1.04 |
| ATATACATAG | 1.03 |
| ATATACGACA | 1.3 |
| ATATACGTTT | 1 |
| ATATACTGCT | 1.03 |
| ATATATGCAA | 1.02 |
| ATATCACGCG | 0.982 |
| ATATCACTTT | 1 |
| ATATCATCAA | 0.967 |
| ATATCCGCAC | 6.17 |
| ATATCCGCTA | 4.24 |
| ATATCGGAAT | 0.993 |
| ATATCTGACT | 0.942 |
| ATATCTGGCC | 1.04 |
| ATATGAAACG | 0.993 |
| ATATGAATGG | 0.993 |
| ATATGAGATA | 0.974 |
| ATATGAGTAG | 0.966 |
| ATATGATCGT | 1 |
| ATATGCACAG | 1.02 |

| Sequence | switch fluorescence ratio |
| --- | --- |
| ATATGCAGGT | 1.04 |
| ATATGGGCAG | 0.969 |
| ATATGGTAAC | 1.04 |
| ATATGTAATT | 0.987 |
| ATATGTACTT | 1.15 |
| ATATGTAGCG | 1.02 |
| ATATGTTCGA | 0.994 |
| ATATTAACGG | 1.05 |
| ATATTAGTGG | 0.985 |
| ATATTCATGC | 0.997 |
| ATATTCATGT | 0.976 |
| ATATTCGAGC | 0.992 |
| ATATTCTTCG | 1.07 |
| ATATTGG | 1.03 |
| ATATTGTAGG | 1.01 |
| ATATTGTAT | 1.03 |
| ATATTTAGGC | 1.04 |
| ATATTTTACA | 1.05 |
| ATATTTTCTT | 1.02 |
| ATCAA | 1.01 |
| ATCAAAGTGT | 0.986 |
| ATCAACAGAT | 1.05 |
| ATCAACAGTG | 1.01 |
| ATCAAGTGCA | 1.04 |
| ATCAAGTTCC | 1.06 |

| Sequence | switch fluorescence ratio |
| --- | --- |
| ATCAATCATA | 1 |
| ATCAATTTTA | 0.99 |
| ATCACCAGG | 2.29 |
| ATCACCTACA | 1.27 |
| ATCACGAGTG | 0.999 |
| ATCACGGT | 0.979 |
| ATCACGTAT | 1.14 |
| ATCACGTTTC | 1.07 |
| ATCACTTCTA | 1.06 |
| ATCAGATGTC | 1.18 |
| ATCAGCATAA | 1.27 |
| ATCAGCTGCT | 0.96 |
| ATCAGGTCTC | 0.976 |
| ATCAGTAGAG | 1.02 |
| ATCAGTCATG | 0.987 |
| ATCAGTCCAG | 1.02 |
| ATCAGTGCCA | 1.02 |
| ATCATAAAGT | 1.03 |
| ATCATACGAC | 1.23 |
| ATCATACGCT | 1.13 |
| ATCATACGTC | 1.02 |
| ATCATGAATC | 1.03 |
| ATCATGTCGG | 0.993 |
| ATCATTATAG | 0.986 |
| ATCATTTTCT | 0.998 |
